Target: T1, TaqDarG-macro (Thermus aquaticus, UniProt P0DV57)
T1 construct: gene darG
Conditions: active site; product complex

T1 sequence (P0DV57 1-155): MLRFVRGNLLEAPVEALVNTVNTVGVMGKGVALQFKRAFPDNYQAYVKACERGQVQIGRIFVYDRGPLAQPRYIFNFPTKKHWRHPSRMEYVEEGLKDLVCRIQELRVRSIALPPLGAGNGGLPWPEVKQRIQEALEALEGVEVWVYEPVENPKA

Nc1ncnc2c1ncn2[C@@H]1O[C@H](COP(=O)(O)OP(=O)(O)OC[C@H]2OC(O)[C@H](O)[C@@H]2O)[C@@H](O)[C@H]1O (stereo partly shown) [ADPr]
X-ray crystal structure, 2.50 A: ADPr moiety in ADPr-TaqDarG-macro forms hydrogen bonds with N8, L9 T20, N22

From PMC5179494 (Molecular Cell, 2016)
